Reference: PMC6919601, “Identification of Plasmodium dipeptidyl aminopeptidase allosteric inhibitors by high throughput screening” (PLoS ONE, 2019)
Screen size: about 110,000 compounds; about 230 (0.21%) showed an effect of 50% or more. The list shows a part of the results.

The compounds below were run against DPAP1 (Plasmodium falciparum, UniProt Q8IIJ9) (assay: primary screen, percent inhibition; read by cleavage of a fluorogenic dipeptide substrate; higher = more effect of the substance).
Set-up: species or system P. falciparum D10 trophozoite lysates; single well
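Note: 30 min substrate incubation versus DMSO and 10 µM JCP410 controls.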

Chain of DPAP1 (Q8IIJ9 whole entry, looked up): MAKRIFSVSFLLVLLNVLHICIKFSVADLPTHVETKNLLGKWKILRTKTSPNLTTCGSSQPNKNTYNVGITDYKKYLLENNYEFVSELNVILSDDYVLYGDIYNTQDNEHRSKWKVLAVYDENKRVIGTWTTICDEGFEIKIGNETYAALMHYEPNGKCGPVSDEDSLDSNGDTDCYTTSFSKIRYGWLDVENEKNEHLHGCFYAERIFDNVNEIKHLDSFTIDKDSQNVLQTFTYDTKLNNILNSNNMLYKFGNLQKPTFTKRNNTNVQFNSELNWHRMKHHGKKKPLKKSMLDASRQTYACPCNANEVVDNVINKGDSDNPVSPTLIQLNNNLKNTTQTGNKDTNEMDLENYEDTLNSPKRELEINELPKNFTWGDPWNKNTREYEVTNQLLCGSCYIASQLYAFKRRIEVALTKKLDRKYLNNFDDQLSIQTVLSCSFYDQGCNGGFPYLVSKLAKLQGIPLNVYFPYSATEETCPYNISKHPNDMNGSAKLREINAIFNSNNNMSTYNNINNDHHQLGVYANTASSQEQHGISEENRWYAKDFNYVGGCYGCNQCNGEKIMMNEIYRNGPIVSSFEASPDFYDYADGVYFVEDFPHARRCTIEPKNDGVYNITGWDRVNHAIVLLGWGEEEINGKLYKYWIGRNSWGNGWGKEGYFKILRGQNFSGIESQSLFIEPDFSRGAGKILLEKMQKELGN

Structure (SMILES)	% Inhibition @ 10 uM [%]
COCCCNC(=O)C1CCN(c2ccc(N3CCOCC3)nn2)CC1	-1.3
N#CCCNc1cc2ccccc2cc1C(=O)O	7.13
CCOC(=O)N1CCN(S(=O)(=O)N2CCCC(C(=O)NCCN3CCOCC3)C2)CC1 (stereo not shown)	2.05
O=C(c1ccccc1Cl)N1CCN(c2cccc(Cl)c2)CC1	3.85
CC(=O)N(C)c1ccc(NC(=O)c2ccc(C(=O)Nc3ccc(N(C)C(C)=O)cc3)cc2)cc1	4.25
CCOc1ccc(/C=c2/[nH]c(=O)/c(=C\c3ccc(OCC)cc3)[nH]c2=O)cc1	-4.26
CC1CCCCN1C(=O)C1c2ccccc2Oc2ccccc21 (stereo not shown)	8.07
CCCc1noc2c1-c1onc(O)c1C(C)(C)C2	0.774
Cc1ccsc1CN1CCN(c2cccc(C(F)(F)F)c2)CC1	-0.0404
O=C(NC1CCS(=O)(=O)C1)NC1CCS(=O)(=O)C1 (stereo not shown)	-9.83
Cn1c2c(c(=O)n(C)c1=O)C1(C(=O)Nc3ccccc31)C(C#N)=C(N)O2 (stereo not shown)	-3.9
Cc1ccc(N2C(=O)NC(=O)/C(=C/Nc3ccc(C(=O)O)cc3)C2=O)cc1	-4.41
Cc1c(Cl)ccc2c(N=Nc3ccccn3)c(O)[nH]c12	0.884
O=S(=O)(NCC(c1ccccc1)C1CCCCC1)c1ccc2c(c1)OCCO2 (stereo not shown)	-3.75
COc1ccc(Cl)cc1S(=O)(=O)n1ccnc1C(C)C	12.3
COc1ccc(N2CCN(Cc3ccccc3[N+](=O)[O-])CC2)cc1	-3.65
COc1ccc(Sc2nc3ccccc3n3c(C)nnc23)cc1	0.454
Cc1ccc(-c2nnn(CC(=O)N(CC(=O)NCCC(C)C)c3cnc4ccccc4c3)n2)cc1	-4.82
O=C(O)c1[nH]c2ccccc2c1CNCc1ccc(F)cc1	3.54
Cc1ccc2nc3c(cc(C(=O)NCC4CCCO4)c(=N)n3CCc3ccccc3)c(=O)n2c1 (stereo not shown)	0.279
O=C(c1ccc(-n2cnc3cccnc32)cc1)N1CCOCC1	-1.48
CCOCCCNC(=O)c1c(NC(=O)c2nc(SCC)ncc2Cl)sc2c1CCC2	-1.11
Cc1ccc(-c2cn(-c3ccc(Cl)cc3)c(=O)s2)cc1	-1.96
CC(C)C(NS(=O)(=O)c1cccs1)C(=O)NCCc1ccc(Cl)cc1 (stereo not shown)	5.7
CC(C)C[C@H](NC(=O)OC1Cc2ccccc2C1)C(=O)NCC#N	-4.72

Structure (SMILES)	% Inhibition @ 10 uM [%]
NS(=O)(=O)c1cccc(NC(=O)c2cccc3c(Br)cccc23)c1	2.22
CCOC(=O)c1c(NC(=O)/C(C#N)=C/c2ccccc2)sc2c1CCC(C)C2 (stereo not shown)	0.611
CCOC(=O)c1c(NC(=O)CSc2n[nH]c(-c3ccco3)n2)sc2c1CCCC2	-3.34
Cc1cc(NC(=O)CSc2nc(-c3ccc(F)cc3)cc(C(F)(F)F)n2)no1	1.39
Cc1ccc2nc3c(cc(C#N)c(=O)n3CCN3CCOCC3)c(=O)n2c1	-4.07
Cc1[nH]c2ccccc2c1C(=O)/C=C/C(=O)O	-2.51
COC(=O)c1ccc(C2C(C#N)=C(N)Oc3[nH]nc(-c4cccs4)c32)cc1 (stereo not shown)	-4.91
CC1=C(C(=O)OC2CCCC2)C(c2cccc(F)c2)C2=C(O)CC(C)(C)CC2=N1 (stereo not shown)	-8.61
COCC(C)NCc1ccc2ccccc2c1 (stereo not shown)	3.44
CCOC(=O)c1sc2nc(C)cc(C)c2c1-n1cccc1	2.7
COc1cccc(-c2nnc3n(Cc4ccccc4)c(=O)c4ccccc4n23)c1O	-3.51
COc1ccc(COC(=O)C2=C(C)NC(=O)NC2c2ccc(Cl)cc2)cc1 (stereo not shown)	-0.769
O=C(O)Cn1nnc(-c2cccs2)n1	1.12
O=C1OC2(CCCC2)OC(=O)C1=Cc1cc(Cl)c(O)c(Cl)c1	-1.47
COc1ccc(NC(=O)C(CC(=O)O)Cc2ccc(Br)cc2)cc1 (stereo not shown)	4.85
CCOc1ccc2oc(-c3ccccc3)c(C(=O)N(C)C)c2c1	0.235
CC/N=C1/SC(C(=O)Nc2cccc(OC)c2)CC(=O)N1CC (stereo not shown)	-3.24
CC1=CC2=NC(C(F)(F)F)(C(F)(F)F)N=C(C)N2C=C1	-5.4
CC1(C)CC(=O)C2=C(C1)N(c1ccc(S(N)(=O)=O)cc1)C(N)=C(C#N)C2c1ccccc1F (stereo not shown)	-3.19
CCC(C)NC(=O)C1CCN(C(=O)c2ccccc2Cl)CC1 (stereo not shown)	1.52
COc1ccc(-c2noc(CC(=O)Nc3cccc(C)n3)n2)cc1	-5.26
CCc1ccc(-c2nc3cc(NC(=O)c4cccc5ccccc45)ccc3o2)cc1	-0.591
CCC(C(=O)NCCc1ccc(Cl)cc1)n1nc(C)c2c(C)n(-c3ccc(C)cc3)nc2c1=O (stereo not shown)	-8.14
Cc1cc(-n2cc3c(c2-c2ccccc2)c(=O)n(C)c(=O)n3C)no1	0.758
CCOC(=O)C1=C(C)OC(N)=C(C#N)C1c1ccccc1OC (stereo not shown)	-1.69

Structure (SMILES)	% Inhibition @ 10 uM [%]
N#CCCN1CCN(C2=NC(=O)/C(=C/c3ccc(Cl)cc3)S2)CC1	-1.02
Cc1ccc(-c2ccc(/C=C(\C#N)C(=O)NCCO)o2)cc1	4.35
Cc1ccc(-c2csc(-c3cc4cc(Cl)cc(Cl)c4oc3=O)n2)c(C)c1	-2.42
CCOC(=O)N1CCN(C(=O)CCCCCNc2nc(S)nc3ccccc23)CC1	5.84
O=C(O)COc1ccc(NC(=O)c2ccccc2)cc1	7.71
O=C(NCCc1ccccc1)c1ccc(C2SCC(=O)N2CCc2ccccc2)cc1 (stereo not shown)	-6.78
CC(=O)Nc1ccc(CN2CCCN(C)CC2)cc1	3.84
CCc1nn(CC(=O)NC(C)CC)c(=O)c2cc3sccc3n12 (stereo not shown)	1.8
Cc1cccc(Cn2c(NCC(C)O)nc3c2c(=O)n(C)c(=O)n3C)c1 (stereo not shown)	5.06
CSCCC(NC(=O)c1cc(C)oc1C)C(=O)O (stereo not shown)	0.413
CCOC(=O)c1cnc(SCc2ccc(OC)cc2)nc1N	-3.36
Cn1c(=O)c2c(O)c([N+](=O)[O-])c(O)nc2n(C)c1=O	-1.76
CC1=CC(C)C2C(=O)N(O)C(=O)C2C1 (stereo not shown)	8.07
CC(=O)Nc1ccc(C2C(C#N)=C(N)OC3=C2C(=O)CC(c2ccccc2)C3)cc1 (stereo not shown)	8.01
COc1ccc(OC)c(NC(=O)CN(c2cc(Cl)ccc2OC)S(C)(=O)=O)c1	-7.63
Cc1cc(=O)n2nc(N3CCCC(C(=O)NCCc4ccccc4)C3)sc2n1 (stereo not shown)	3
COC(=O)C1=NNC2C(=O)N(c3ccccc3)C(=O)C12 (stereo not shown)	-1.85
O=C(NCc1ccc2c(c1)OCO2)C1CCCN1S(=O)(=O)c1cccc2cccnc12 (stereo not shown)	-6.07
O=C(COc1ccc(S(=O)(=O)NCc2ccccc2)cc1Cl)N1CCOCC1	5.14
Cc1cc(=O)n(C)c(=O)n1CCCCO	-3.65
O=C1C2CC=CCC2C(=O)N1Cc1ccccc1 (stereo not shown)	4.07
CCOC(=O)c1c(-c2ccc(F)cc2)csc1N	0.716
CCN(C(=O)c1ccc(C)cc1)c1nc(-c2ccccc2)cs1	1.22
Cn1cccc1-c1nc2cc(NC(=O)c3cccs3)ccc2[nH]1	4.31
Cc1ccccc1CN(c1ccc(C(=O)NCc2ccncc2)cc1)S(C)(=O)=O	-7.17

Structure (SMILES)	% Inhibition @ 10 uM [%]
COc1ccc(Nc2ccnc(Nc3ccc(OC)cc3)n2)cc1	5.07
Cc1ccc(-n2ncc(C(=O)NC3CCC(C)CC3)c2-n2cccc2)cc1 (stereo not shown)	9.38
Cc1oc2c(O)c(O)ccc2c(=O)c1Oc1ccc(F)cc1	0.512
COc1ccc(C2=NN(C(C)=O)C(c3ccc(OC)cc3)C2)cc1 (stereo not shown)	9.1
NC(=O)NC(Cc1ccccc1)C(=O)O (stereo not shown)	-6.84
CC(C)Oc1ccc(C(=O)Nc2cccnc2)cc1	1.59
Cc1ccc(-c2nn3c(CC#N)nnc3c3ccccc23)cc1	6.38
CCCOc1ccc(C(=O)Nc2ccc(N3CCOCC3)cc2)cc1	-5.26
CCN(CCN(C)C)Cc1ccc(C(C)C)cc1	-1.78
OCC1CCCCN1Cc1ccco1 (stereo not shown)	-2.12
CCOc1ccc(CCNc2cc(C)nc3nc(C)nn23)cc1OCC	-5.29
CN(Cc1ccccc1)S(=O)(=O)c1ccc2ncc(C(=O)NCC3CCCO3)c(O)c2c1 (stereo not shown)	5.21
Cc1ccccc1OCC(=O)Nc1nonc1NC(=O)COc1ccccc1C	0.316
CCC(C(=O)c1ccccc1)n1c(N2CCOCC2)nc2c1c(=O)n(C)c(=O)n2C (stereo not shown)	-10.4
Cn1c(=O)n(CCSc2ccc(Cl)cc2)c(=O)c2ccccc21	4.27
COc1ccc(C2=NS(=O)(=O)N(C)C(C(=O)NCC3CCCO3)=C2)cc1 (stereo not shown)	-2.84
CC1=C(C(=O)Nc2ccc(Cl)cc2)C(c2ccc(Cl)cc2Cl)NC(S)=N1 (stereo not shown)	-2.2
CC(C)C[C@H](NC(=O)c1ccc2c(c1)-c1ccccc1-2)C(=O)NCC#N	1.35
CC1CCN(C2CC(=O)N(c3ccc(N4C(=O)CC(N5CCC(C)CC5)C4=O)cc3)C2=O)CC1 (stereo not shown)	-1.11
Cc1cccc(C(=O)Nc2ccc(Cl)cc2Cl)c1	-3.04
CN(c1ccccc1C(=O)Nc1ccc2ccccc2c1)S(C)(=O)=O	-0.99
CCc1ccccc1NC(=O)C(C)Oc1ccccc1 (stereo not shown)	3.09
Cc1nn(Cc2ccccc2Cl)c(C)c1NC(=O)COCc1cc(-c2cccs2)on1	-3.25
N#C/C(=C\c1ccc2c(c1)OCO2)c1n[nH]c(N)c1C#N	0.779
CC(C)C[C@H](NS(=O)(=O)c1ccccc1)C(=O)NCC#N	-3.04
